Results reported in the supplement of paper PMC4967469.
By IC50 is meant the dose at which the fit gives 50% viability; a fit beyond the top or the lowest dose is shown as a bound at that dose. AUC is the area under the same curve over the 256-fold range up to the top dose, as a fraction: 1 means no effect, lower means more sensitive. For part of these data: The top dose, if marked as inferred, is not printed in the source and was worked back from the curve model.

How the values were obtained:
Test in all cases: Viability of human cancer cell lines after 72 h of drug (GDSC screen)
Midostaurin = compound: CO[C@@H]1[C@H](N(C)C(=O)c2ccccc2)C[C@H]2O[C@]1(C)n1c3ccccc3c3c4c(c5c6ccccc6n2c5c31)C(=O)NC4 [Midostaurin]; conditions: top dose 0.512 µM; top dose inferred
Experimental: (§1)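 Human cancer cell lines in 384-well plates, medium with 10% serum, drug for 72 h over a 256-fold dose range (nine 2-fold or five 4-fold steps up to the top dose). Adherent lines were fixed and stained with the nucleic acid dye Syto60, suspension lines read with resazurin; signal relative to control wells, capped at 0 and 100%. One two-parameter sigmoid per drug and line, fitted in a mixed model over all curves with the slope shared within a line.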

Mitomycin C = compound: CO[C@@]12[C@H](COC(N)=O)C3=C(C(=O)C(C)=C(N)C3=O)N1C[C@@H]1N[C@@H]12 [Mitomycin C]; conditions: top dose 16 µM
Experimental: as §1

Bosutinib = compound: COc1cc(Nc2c(C#N)cnc3cc(OCCCN4CCN(C)CC4)c(OC)cc23)c(Cl)cc1Cl [Bosutinib]; conditions: top dose 2 µM
Experimental: as §1

NVP-BHG712 = compound: Cc1ccc(C(=O)Nc2cccc(C(F)(F)F)c2)cc1Nc1nc(-c2cccnc2)nc2c1cnn2C [NVP-BHG712]; conditions: top dose 10.24 µM; top dose inferred
Experimental: as §1

IOX2 = compound: O=C(O)CNC(=O)c1c(O)c2ccccc2n(Cc2ccccc2)c1=O [IOX2]; conditions: top dose 0.1 µM; top dose inferred
Experimental: as §1

Cell Line | AUC (Midostaurin) | IC50 (Midostaurin) [nM] | AUC (Mitomycin C) | IC50 (Mitomycin C) [nM] | AUC (Bosutinib) | IC50 (Bosutinib) [nM] | AUC (NVP-BHG712) | IC50 (NVP-BHG712) [nM] | AUC (IOX2) | IC50 (IOX2) [nM]
SK-MEL-30 (melanoma, adherent) | 0.851 | 426 | 0.378 | 452 | 0.985 | > 2000 | 0.595 | 1180 | 0.982 | > 100
NCI-H1792 (lung adenocarcinoma, adherent) | 0.85 |  | 0.437 | 686 | 0.916 | > 2000 | 0.907 | > 10200 | 0.977 | > 100
EFO-21 (ovary, adherent) | 0.699 | 149 | 0.442 | 648 | 0.977 | > 2000 | 0.941 | > 10200 | 0.963 | > 100
Calu-3 (lung adenocarcinoma, adherent) | 0.793 | 303 | 0.321 | 275 | 0.983 | > 2000 | 0.983 | > 10200 | 0.962 | > 100
NCI-H838 (lung adenocarcinoma, adherent) | 0.92 | > 512 | 0.558 | 1450 | 0.943 | > 2000 | 0.973 | > 10200 | 0.985 | > 100
SK-MES-1 (lung squamous cell carcinoma, adherent) | 0.819 | 325 | 0.178 | 96.1 | 0.879 | > 2000 | 0.914 | > 10200 | 0.978 | > 100
IGR-1 (melanoma, adherent) | 0.874 | 394 | 0.301 | 299 | 0.99 | > 2000 | 0.818 | 4900 | 0.934 | > 100
TT2609-C02 (thyroid, adherent) | 0.697 | 119 | 0.093 | < 62.5 | 0.752 | 703 | 0.885 | > 10200 | 0.983 | > 100
SISO (cervix, adherent) | 0.855 | 383 | 0.039 | < 62.5 | 0.944 | > 2000 | 0.968 | > 10200 | 0.987 | > 100
UMC-11 (lung carcinoid, adherent) | 0.937 | > 512 | 0.471 | 844 | 0.989 | > 2000 | 0.935 | > 10200 | 0.99 | > 100
201T (lung adenocarcinoma, adherent) | 0.72 | 161 | 0.048 | < 62.5 | 0.943 | > 2000 | 0.949 | > 10200 |  | 
HEC-1 (endometrium, adherent) | 0.957 | > 512 | 0.445 | 713 | 0.96 | > 2000 | 0.975 | > 10200 | 0.984 | > 100
HT-3 (cervix, adherent) | 0.955 | > 512 | 0.095 | < 62.5 | 0.981 | > 2000 | 0.955 | > 10200 | 0.986 | > 100
NCI-H2009 (lung adenocarcinoma, adherent) | 0.806 | 280 | 0.342 | 355 | 0.891 | > 2000 | 0.9 | > 10200 | 0.982 | > 100
MFE-296 (endometrium, adherent) | 0.927 | > 512 | 0.335 | 334 | 0.965 | > 2000 | 0.98 | > 10200 | 0.98 | > 100
PL4 (pancreas, adherent) | 0.902 | > 512 | 0.704 | 3830 | 0.987 | > 2000 | 0.933 | > 10200 | 0.985 | > 100
NCI-H1651 (lung adenocarcinoma, adherent) | 0.956 | > 512 | 0.08 | < 62.5 | 0.986 | > 2000 | 0.987 | > 10200 | 0.985 | > 100
639-V (bladder, adherent) | 0.918 | > 512 | 0.074 | < 62.5 | 0.949 | > 2000 | 0.992 | > 10200 | 0.991 | > 100
RERF-LC-MS (lung adenocarcinoma, adherent) | 0.951 | > 512 | 0.526 | 1180 | 0.971 | > 2000 | 0.974 | > 10200 | 0.985 | > 100
HGC-27 (stomach, adherent) | 0.817 | 233 | 0.087 | < 62.5 | 0.919 | > 2000 | 0.889 | 8580 | 0.99 | > 100
LCLC-103H (large cell lung carcinoma, adherent) | 0.795 | 213 | 0.355 | 414 | 0.985 | > 2000 | 0.971 | > 10200 | 0.954 | > 100
YKG-1 (glioma, adherent) | 0.796 | 244 | 0.42 | 603 | 0.903 | > 2000 | 0.959 | > 10200 | 0.985 | > 100
MOG-G-CCM (glioma, adherent) | 0.779 | 245 | 0.574 | 1650 | 0.849 | 1900 | 0.818 | 7030 | 0.981 | > 100
LCLC-97TM1 (large cell lung carcinoma, adherent) | 0.834 | 380 | 0.241 | 164 | 0.949 | > 2000 | 0.871 | > 10200 | 0.977 | > 100
KMH-2 (thyroid, adherent) | 0.864 | 370 | 0.448 | 732 | 0.973 | > 2000 | 0.99 | > 10200 | 0.989 | > 100
Hs-578-T (breast, adherent) | 0.946 | > 512 | 0.772 | 6570 | 0.969 | > 2000 | 0.987 | > 10200 | 0.975 | > 100
AGS (stomach, adherent) | 0.778 | 185 | 0.166 | 112 | 0.971 | > 2000 | 0.817 | 4970 | 0.961 | > 100

Cell Line | AUC (Midostaurin) | IC50 (Midostaurin) [nM] | AUC (Mitomycin C) | IC50 (Mitomycin C) [nM] | AUC (Bosutinib) | IC50 (Bosutinib) [nM] | AUC (NVP-BHG712) | IC50 (NVP-BHG712) [nM] | AUC (IOX2) | IC50 (IOX2) [nM]
SK-MEL-3 (melanoma, adherent) | 0.917 | > 512 | 0.439 | 662 | 0.984 | > 2000 | 0.808 | 6330 | 0.981 | > 100
5637 (bladder, adherent) | 0.859 | 363 | 0.103 | < 62.5 | 0.823 | 1030 | 0.882 | 9100 | 0.974 | > 100
C32 (melanoma, adherent) | 0.973 | > 512 | 0.531 | 1230 | 0.953 | > 2000 | 0.91 | > 10200 | 0.985 | > 100
PCI-30 (head and neck, adherent) | 0.868 | > 512 | 0.751 | 6340 | 0.905 | > 2000 | 0.985 | > 10200 | 0.963 | > 100
NCI-H1781 (lung adenocarcinoma, adherent) | 0.922 | > 512 | 0.072 | < 62.5 | 0.987 | > 2000 | 0.982 | > 10200 | 0.988 | > 100
CAL-85-1 (breast, adherent) | 0.87 | > 512 | 0.197 | 93.1 | 0.976 | > 2000 | 0.882 | > 10200 | 0.978 | > 100
H2731 (mesothelioma, adherent) | 0.883 | > 512 | 0.701 | 4030 | 0.923 | > 2000 | 0.776 | 4680 | 0.875 | > 100
K2 (melanoma, adherent) | 0.978 | > 512 | 0.446 | 682 | 0.834 | 1890 | 0.849 | > 10200 | 0.955 | > 100
PANC-02-03 (pancreas, adherent) | 0.964 | > 512 | 0.508 | 1050 | 0.918 | > 2000 | 0.762 | 4350 | 0.979 | > 100
H4 (glioma, adherent) | 0.744 | 158 | 0.051 | < 62.5 | 0.818 | 1110 | 0.932 | > 10200 | 0.983 | > 100
CAL-72 (osteosarcoma, adherent) | 0.958 | > 512 | 0.835 | 13300 | 0.981 | > 2000 | 0.984 | > 10200 | 0.976 | > 100
H2869 (mesothelioma, adherent) | 0.855 | > 512 | 0.7 | 4230 | 0.976 | > 2000 | 0.925 | > 10200 | 0.957 | > 100
BT-20 (breast, adherent) | 0.941 | > 512 | 0.351 | 349 | 0.961 | > 2000 | 0.962 | > 10200 | 0.982 | > 100
NCI-H3122 (lung adenocarcinoma, adherent) | 0.909 | > 512 | 0.119 | < 62.5 | 0.987 | > 2000 | 0.918 | > 10200 |  | 
KMS-12-BM (myeloma, suspension) | 0.966 | > 512 | 0.537 | 1240 | 0.715 | 446 | 0.97 | > 10200 |  | 
SAT (head and neck, adherent) | 0.914 | > 512 | 0.729 | 6580 | 0.677 | 514 | 0.948 | > 10200 |  | 
NCI-H2052 (mesothelioma, adherent) | 0.821 | 410 | 0.587 | 1850 | 0.968 | > 2000 | 0.97 | > 10200 |  | 
LOU-NH91 (lung squamous cell carcinoma, adherent) | 0.847 | 431 | 0.709 | 4130 | 0.605 | 249 | 0.966 | > 10200 |  | 
NCI-H647 (non-small cell lung carcinoma, adherent) | 0.794 | 248 | 0.414 | 573 | 0.948 | > 2000 | 0.942 | > 10200 |  | 
OCUM-1 (stomach, adherent) | 0.912 | > 512 | 0.365 | 406 | 0.947 | > 2000 | 0.987 | > 10200 |  | 
H290 (mesothelioma, adherent) | 0.893 | > 512 | 0.315 | 321 | 0.813 | 969 |  |  | 0.988 | > 100
JHU-029 (head and neck, adherent) | 0.824 | 402 | 0.334 | 307 | 0.658 | 382 |  |  | 0.977 | > 100
VMRC-RCW (kidney, adherent) | 0.892 | > 512 | 0.288 | 266 | 0.981 | > 2000 | 0.964 | > 10200 |  | 
KYSE-450 (oesophagus, adherent) | 0.847 | 346 | 0.394 | 521 | 0.89 | > 2000 | 0.905 | > 10200 |  | 
PA-1 (ovary, adherent) | 0.799 | 187 | 0.116 | 92 | 0.952 | > 2000 | 0.882 | 6880 |  | 
NCI-H1734 (lung adenocarcinoma, adherent) | 0.851 | 456 | 0.241 | 163 | 0.976 | > 2000 | 0.95 | > 10200 |  | 
